From PubChem BioAssay AID485313 (National Center for Advancing Translational Sciences (NCATS), 2010)
Out of some 320,000 compounds screened, about 7,600 (2.4%) were called active. Inconclusive means that the source gave no clear call. Such entries were picked first, then a sample of the others. The call rests on the fitted dose curve; in most records, active means well fitted activation curve with a large enough effect; inconclusive means small, poorly fitted or top-dose-only effect; inactive means no such curve, though single readings can be large or run the other way. No potency is given beside an inconclusive call; the fits are too rough.

test: qHTS Assay for NPC1 Promoter Activators; details: Huh7 NPC1 promoter luciferase reporter, 24 h; series mostly up to 9.22 µM; activation: at the top concentration; further: nearly all actives have a fitted effect of over 60% in size;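 on activation: reporter is driven by a mutant NPC1 promoter; % of control where 0% means no effect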
Procedure, shortened: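 Quantitative HTS used a cell-based reporter: Huh7 cells stably bearing the NPC1 promoter upstream of luciferase were treated with compounds for 24 h, and promoter activation was read as luminescence.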
Potency means the concentration at half of the fitted maximal effect; tags describe the fitted curve by direction and shape.

Compound | activation | Potency
CCc1ccc2c(c1)/C(=C/C(=O)c1cccs1)C(=O)N2 | inactive: -0.471% | –
O=C(NNC(=O)C1CC=CCC1)c1ccccc1Cl (centres undefined) | inactive: 24.7% | –
Cc1ccc2sc(NC(=O)C3CC3)nc2c1C | – | inconclusive [activator, single point]
NC(=O)C1CCN(C2CC(=O)NC2=O)CC1 (centres undefined) | inactive: -2.26% | –
COc1ccc(Cc2noc(-c3ccccc3)n2)cc1OC | inactive: -2.22% | –
Cc1cc(NC(=O)c2ccc(Cl)cc2)no1 | – | inconclusive [activator, partial curve]
COc1cc(C2C(C#N)=C(N)OC3=C2C(=O)CC(C)(C)C3)ccc1OCCN1CCOCC1 (centres undefined) | – | inconclusive [activator, single point]
Cc1ccc2nc(-c3ccc(NC(=O)C(C)N4C(=O)c5ccccc5C4=O)cc3)sc2c1 (centres undefined) | – | inconclusive [activator, partial curve]
O=C(NCc1cc([N+](=O)[O-])ccc1O)c1cccnc1Sc1ccc(Cl)cc1 | – | inconclusive [activator, partial curve]
O=C(NCCS(=O)(=O)NCCc1ccccc1)c1ccc2c(c1)OCO2 | – | active: 4.47 µM
CN(CCC#N)C(=O)COC(=O)c1ccccc1C(=O)c1ccc(Cl)c([N+](=O)[O-])c1 | inactive: -14.5% | –
O=C(CN1CCCCCC1)Nc1c(Cl)cc(Cl)cc1Cl | – | inconclusive [activator, single point]
N/C(CS(=O)(=O)c1ccccc1)=N\OC(=O)c1ccc(F)cc1 | inactive: -0.74% | –
O=C(Cc1cccs1)N=Nc1c(O)[nH]c2ccccc12 | inactive: 10.3% | –
COc1ccc(NC(=O)CN(Cc2ccco2)Cc2ccco2)cc1S(=O)(=O)N1CCCCC1 | inactive: -0.356% | –
N#C/C(=C(/O)CN1CCCC1)c1nc(-c2ccccc2)cs1 | – | active: 3.98 µM
O=C1NC(=O)/C(=C\c2ccc(Oc3cnccn3)cc2)S1 | – | inconclusive [activator, partial curve]
O=C1Nc2ccccc2N(O)N1c1cc(-c2ccccc2Cl)no1 | – | inconclusive [activator, partial curve]
O=C(Nc1ccc2nccnc2c1)c1cnccn1 | – | inconclusive [activator, partial curve]
COc1cccc(-c2noc(-c3cccs3)n2)c1 | – | inconclusive [activator, partial curve]
O=C(CCC1CCCC1)Nc1ccc(Br)cn1 | – | inconclusive [activator, partial curve]
CCC(=O)Nc1cc(-c2cc3ccccc3oc2=O)ccc1OC | – | inconclusive [activator, full curve]
CCc1ccc(-c2cc3c(=O)n(CC(=O)N4CCCC4)nc(C)n3n2)cc1 | inactive: 2.82% | –
Cc1nnc(NC(=O)c2ccc(S(=O)(=O)C(F)F)cc2)s1 | – | inconclusive [activator, partial curve]
CC1CCCN(C(=O)COC(=O)c2n[nH]c3ccccc23)C1 (centres undefined) | – | inconclusive [activator, partial curve]
CC(=O)c1cccc(NC(=S)NC(=O)c2cncc(Br)c2)c1 | – | active: 2.51 µM
CC(=O)Oc1ccc(N(C(C)=O)S(=O)(=O)c2ccc(Cl)cc2)c2ccccc12 | inactive: 1.23% | –

Compound | activation | Potency
COc1ccc(C(=O)Nc2ccc(C(=O)OCC(=O)c3ccccc3)cc2)cc1 | inactive: 10.7% | –
Cc1ccc(C(=O)c2oc3ccccc3c2N)cc1 | – | inconclusive [activator, partial curve]
O=C(O)c1ccc(N/N=C/c2cc3cc4c(cc3nc2Cl)OCCO4)cc1 | – | active: 0.282 µM
O=C(CSc1nc(-c2ccc(F)cc2)cs1)Nc1ccccn1 | inactive: -1.41% | –
COCC1CCN(C(=O)c2ccc3oc(CCCc4ccccc4)nc3c2)C1 (centres undefined) | – | inconclusive [activator, partial curve, poor fit]
CC1CCC(NC(=O)c2ccc3c(c2)OCO3)CC1 (centres undefined) | – | active: 0.316 µM
COc1ccccc1N1CCN(C(=O)CSc2ccccc2)CC1 | inactive: 27.6% | –
c1ccc2c(c1)Cc1cc3ccccc3nc1-2 | – | active: 1.26 µM
O=C(Nc1ccc(Br)cc1)C1CC(c2c(F)cccc2Cl)=NO1 (centres undefined) | – | inconclusive [activator, partial curve]
CCCNc1nc(C)cc(-c2cc(-c3ccccc3)on2)n1 | – | inconclusive [activator, partial curve]
O=C(O)c1cccc(Nc2nc(-c3cc4ccccc4oc3=O)cs2)c1 | – | active: 2.82 µM
CCCCOC(=O)Nc1ccc2c(C)cc(=O)oc2c1 | – | active: 1.78 µM
CCOC(=O)c1ccc2nc(C)c(CCC(C)=O)c(Cl)c2c1 | – | inconclusive [activator, single point]
Cc1ccccc1NC(=O)NNC(=O)OC(C)(C)C | inactive: 0.144% | –
Brc1ccc(COc2ncnc3ccccc23)cc1 | inactive: 0.606% | –
O=C(Oc1ccc(-c2cnc3ccccc3n2)cc1)c1cccc([N+](=O)[O-])c1 | – | inconclusive [activator, single point]
CCC(=O)Nc1ccc(NC(=O)c2cc3ccccc3o2)cc1 | – | inconclusive [activator, partial curve, poor fit]
O=C(COC(=O)C1CCN(S(=O)(=O)c2cccc3cccnc23)CC1)c1ccccc1 | inactive: 0.478% | –
COCCN=c1scc(-c2cccs2)n1/N=C(\C)c1ccco1 | – | inconclusive [activator, partial curve]
O=C(Nc1ccc(Cl)c(Cl)c1)C1CC(=O)N(c2ccc(Br)cc2)C1 (centres undefined) | inactive: -2.29% | –
S=c1[nH]nc(-c2cccnc2)n1/N=C/C(Cl)=C\c1ccccc1 | – | inconclusive [activator, single point]
CCn1cc(Br)c(C(=O)Nc2ccc(C(=O)OC(C)C)cc2)n1 | – | inconclusive [activator, full curve, poor fit]
CCC1CCCCN1C(=O)CCCOc1ccccc1 (centres undefined) | – | inconclusive [activator, partial curve]
CCOC(=O)C1(Cc2cccc(OC)c2)CCCN(C(=O)c2cc(C)on2)C1 (centres undefined) | – | inconclusive [activator, partial curve]
Cc1cc2ccccc2n1CCNC(=O)c1ccc(Br)o1 | – | inconclusive [activator, single point]
CNC(=O)c1c(NC(=O)c2nc3ccccc3s2)sc2c1CCC2 | – | inconclusive [activator, single point]
Cc1ccc(C(=O)Nc2cc(C)c(OCC(=O)N3CCOCC3)c(C)c2)cc1 | – | inconclusive [activator, partial curve]

Compound | activation | Potency
CS(=O)(=O)c1ccc(C(=O)Nc2cc(S(C)(=O)=O)ccc2Cl)cc1 | inactive: 2.5% | –
CSc1ccccc1NC(=O)C1=CC(c2cccs2)=NS(=O)(=O)N1C | inactive: 13.5% | –
CCCCC[C@]12Cc3ccccc3C(O1)C1=C(CC(C)(C)CC1=O)O2 | inactive: -2.69% [at 1.84 µM] | –
CCOc1cc(N2CCOCC2)c(OCC)cc1NC(=O)COc1cccc(CC)c1 | inactive: -3.1% | –
O=C(c1cccs1)N(C(=O)c1cccs1)c1ccccn1 | – | inconclusive [activator, partial curve]
NC(=O)c1sc2nc3c(cc2c1N)CCC3 | – | inconclusive [activator, partial curve]
CC(=O)Nc1ccccc1C(=O)C(=O)Nc1ccc(C)c(C)c1 | – | active: 2 µM
O=C(NCCCc1ccccc1)c1ccccc1O | – | inconclusive [activator, partial curve]
CCc1nn(CC(=O)NCCN2CCN(C)CC2)c(=O)c2cc3c(OC)cccc3n12 | inactive: -0.391% | –
O=C(O)c1ccc2nc(-c3cc4cccc(O)c4oc3=O)[nH]c2c1 | inactive: 10.4% | –
Cc1ccccc1NC(=O)c1nc2nccc(C)n2n1 | – | inconclusive [activator, partial curve]
O=C(Nc1nc(-c2ccccc2)cs1)c1ccco1 | – | inconclusive [activator, partial curve]
Cc1c(C(=O)N2C[C@@H](C)O[C@@H](C)C2)oc2c(F)cccc12 | – | inconclusive [activator, single point]
COc1ccc(Cc2nc(-c3ccccc3)no2)cc1 | – | inconclusive [activator, partial curve]
C/C(=N\Nc1nccnc1Cl)c1ccc(O)c(C)c1 | – | inconclusive [activator, single point]
COC(=O)Nc1ccc(SCC(=O)c2ccccc2)cc1 | inactive: 17.2% | –
O=C(N/N=C/c1ccc([N+](=O)[O-])cc1)c1cccs1 | – | inconclusive [activator, partial curve]
CCn1c2ccccc2c2c3ncc4cccn4c3ccc21 | – | active: 3.16 µM
Cc1ccc(NC(=O)CSc2nnc(-c3cccs3)o2)cc1S(=O)(=O)N(C)C | – | inconclusive [activator, single point]
COc1ccc(S(=O)(=O)N2CCOCC2)cc1NC(=O)C1COc2ccccc2O1 (centres undefined) | inactive: -4.01% | –
O=C(NC(Cc1c[nH]c2ccccc12)C(=O)Nc1ccc(F)cc1)c1cccs1 (centres undefined) | inactive: -5.67% | –
COCC(C)NC(=O)c1cc(-c2ccc(O)cc2)on1 (centres undefined) | inactive: 26.6% | –
CCOc1cc(/C=C/c2nc3ccccc3c(=O)[nH]2)ccc1O | – | inconclusive [activator, single point]
CCC(=O)Nc1ccc2oc(-c3cccnc3)nc2c1 | – | inconclusive [activator, partial curve]
COc1ccc(-c2ccc(-c3nnn(CC(C)=O)n3)cc2)cc1 | – | active: 2.51 µM
